# Experimental data from the supplement of paper PMC8728848.
# This is one part of the list.
# What was measured:
# Assay in all cases: glycan array binding signal (z-score within array); higher = stronger binding
# Settings in all cases: glycan notation: IUPAC condensed, linker removed
# [1] = molecular target: Gal(b1-3)GlcNAc(b1-6)GalNAc
# Procedure, shortened: (§1)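 Glycan array binding is given as a within-array Z-score, which can be read as non-binding when negative. The arrays, 3228 of them, came from the Consortium for Functional Glycomics database and were retained only where the protein sequence was available. Z-scores were averaged across arrays of the same protein sequence at different concentrations or buffers and across linkers.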
# [2] = molecular target: Gal(b1-3)GlcNAc(b1-6)[Gal(b1-3)]GalNAc
# Procedure, shortened: as §1
# [3] = molecular target: Gal(b1-3)GlcNAc6S
# Procedure, shortened: as §1
# [4] = molecular target: Gal(b1-3)[Fuc(a1-4)]GlcNAc
# Procedure, shortened: as §1
# [5] = molecular target: Gal(b1-3)[Fuc(a1-4)]GlcNAc(b1-2)Man
# Procedure, shortened: as §1
# [6] = molecular target: Gal(b1-3)[Fuc(a1-4)]GlcNAc(b1-2)Man(a1-3)[Gal(b1-3)[Fuc(a1-4)]GlcNAc(b1-2)Man(a1-6)]Man(b1-4)GlcNAc(b1-4)[Fuc(a1-6)]GlcNAc
# Procedure, shortened: as §1
# [7] = molecular target: Gal(b1-3)[Fuc(a1-4)]GlcNAc(b1-3)Gal(b1-3)[Fuc(a1-4)]GlcNAc
# Procedure, shortened: as §1
# [8] = molecular target: Gal(b1-3)[Fuc(a1-4)]GlcNAc(b1-3)Gal(b1-4)[Fuc(a1-3)]GlcNAc
# Procedure, shortened: as §1
# [9] = molecular target: Gal(b1-3)[Fuc(a1-4)]GlcNAc(b1-6)GalNAc
# Procedure, shortened: as §1
# [10] = molecular target: Gal(b1-3)[GlcNAc(b1-6)]GalNAc
# Procedure, shortened: as §1
# [11] = molecular target: Gal(b1-3)[Neu5Ac(a2-6)]GalNAc
# Procedure, shortened: as §1
# [12] = molecular target: Gal(b1-3)[Neu5Ac(a2-6)]GlcNAc(b1-4)Gal(b1-4)Glc
# Procedure, shortened: as §1
# [13] = molecular target: Gal(b1-3)[Neu5Ac(b2-6)]GalNAc
# Procedure, shortened: as §1
# [14] = molecular target: Gal(b1-4)Gal
# Procedure, shortened: as §1
# [15] = molecular target: Gal(b1-4)GalNAc(a1-3)[Fuc(a1-2)]Gal(b1-4)GlcNAc
# Procedure, shortened: as §1
# [16] = molecular target: Gal(b1-4)GalNAc(b1-3)[Fuc(a1-2)]Gal(b1-4)GlcNAc
# Procedure, shortened: as §1
# [17] = molecular target: Gal(b1-4)Glc
# Procedure, shortened: as §1
# [18] = molecular target: Gal(b1-4)Glc6S
# Procedure, shortened: as §1
# [19] = molecular target: Gal(b1-4)GlcNAc
# Procedure, shortened: as §1
# [20] = molecular target: Gal(b1-4)GlcNAc(a1-6)Gal(b1-4)GlcNAc
# Procedure, shortened: as §1
# [21] = molecular target: Gal(b1-4)GlcNAc(b1-2)Man
# Procedure, shortened: as §1
# [22] = molecular target: Gal(b1-4)GlcNAc(b1-2)Man(a1-3)Man(b1-4)GlcNAc(b1-4)GlcNAc
# Procedure, shortened: as §1
# [23] = molecular target: Gal(b1-4)GlcNAc(b1-2)Man(a1-3)[Gal(b1-4)GlcNAc(b1-2)Man(a1-6)]Man(b1-4)GlcNAc(b1-4)GlcNAc
# Procedure, shortened: as §1
# [24] = molecular target: Gal(b1-4)GlcNAc(b1-2)Man(a1-3)[Gal(b1-4)GlcNAc(b1-2)Man(a1-6)]Man(b1-4)GlcNAc(b1-4)[Fuc(a1-6)]GlcNAc
# Procedure, shortened: as §1
# [25] = molecular target: Gal(b1-4)GlcNAc(b1-2)Man(a1-3)[Gal(b1-4)GlcNAc(b1-2)Man(a1-6)][Gal(b1-4)GlcNAc(b1-4)]Man(b1-4)GlcNAc(b1-4)[Fuc(a1-6)]GlcNAc
# Procedure, shortened: as §1
# [26] = molecular target: Gal(b1-4)GlcNAc(b1-2)Man(a1-3)[Gal(b1-4)GlcNAc(b1-2)Man(a1-6)][GlcNAc(b1-4)]Man(b1-4)GlcNAc(b1-4)[Fuc(a1-6)]GlcNAc
# Procedure, shortened: as §1
# [27] = molecular target: Gal(b1-4)GlcNAc(b1-2)Man(a1-3)[GlcNAc(b1-2)Man(a1-6)]Man(b1-4)GlcNAc(b1-4)GlcNAc
# Procedure, shortened: as §1
# [28] = molecular target: Gal(b1-4)GlcNAc(b1-2)Man(a1-3)[GlcNAc(b1-4)][Gal(b1-4)GlcNAc(b1-2)Man(a1-6)]Man(b1-4)GlcNAc(b1-4)GlcNAc
# Procedure, shortened: as §1
# [29] = molecular target: Gal(b1-4)GlcNAc(b1-2)Man(a1-3)[Man(a1-6)]Man(b1-4)GlcNAc(b1-4)GlcNAc
# Procedure, shortened: as §1
# [30] = molecular target: Gal(b1-4)GlcNAc(b1-2)Man(a1-6)Man(b1-4)GlcNAc(b1-4)GlcNAc
# Procedure, shortened: as §1
# [31] = molecular target: Gal(b1-4)GlcNAc(b1-2)Man(a1-6)[GlcNAc(b1-2)Man(a1-3)]Man(b1-4)GlcNAc(b1-4)GlcNAc
# Procedure, shortened: as §1
# [32] = molecular target: Gal(b1-4)GlcNAc(b1-2)Man(a1-6)[Man(a1-3)]Man(b1-4)GlcNAc(b1-4)GlcNAc
# Procedure, shortened: as §1
# [33] = molecular target: Gal(b1-4)GlcNAc(b1-2)[Gal(b1-4)GlcNAc(b1-4)]Man(a1-3)[Gal(b1-4)GlcNAc(b1-2)Man(a1-6)]Man(b1-4)GlcNAc(b1-4)GlcNAc
# Procedure, shortened: as §1
# [34] = molecular target: Gal(b1-4)GlcNAc(b1-2)[Gal(b1-4)GlcNAc(b1-4)]Man(a1-3)[Gal(b1-4)GlcNAc(b1-2)[Gal(b1-4)GlcNAc(b1-6)]Man(a1-6)]Man(b1-4)GlcNAc(b1-4)GlcNAc
# Procedure, shortened: as §1
# [35] = molecular target: Gal(b1-4)GlcNAc(b1-2)[Gal(b1-4)GlcNAc(b1-4)]Man(a1-3)[GlcNAc(b1-4)][Gal(b1-4)GlcNAc(b1-2)Man(a1-6)]Man(b1-4)GlcNAc(b1-4)GlcNAc
# Procedure, shortened: as §1
# [36] = molecular target: Gal(b1-4)GlcNAc(b1-2)[Gal(b1-4)GlcNAc(b1-4)]Man(a1-3)[GlcNAc(b1-4)][Gal(b1-4)GlcNAc(b1-2)[Gal(b1-4)GlcNAc(b1-6)]Man(a1-6)]Man(b1-4)GlcNAc(b1-4)GlcNAc
# Procedure, shortened: as §1
# [37] = molecular target: Gal(b1-4)GlcNAc(b1-2)[Gal(b1-4)GlcNAc(b1-6)]Man(a1-6)[Gal(b1-4)GlcNAc(b1-2)Man(a1-3)]Man(b1-4)GlcNAc(b1-4)GlcNAc
# Procedure, shortened: as §1
# [38] = molecular target: Gal(b1-4)GlcNAc(b1-2)[Gal(b1-4)GlcNAc(b1-6)]Man(a1-6)[Gal(b1-4)GlcNAc(b1-2)Man(a1-3)]Man(b1-4)GlcNAc(b1-4)[Fuc(a1-6)]GlcNAc
# Procedure, shortened: as §1
# [39] = molecular target: Gal(b1-4)GlcNAc(b1-2)[Gal(b1-4)GlcNAc(b1-6)]Man(a1-6)[GlcNAc(b1-4)][Gal(b1-4)GlcNAc(b1-2)Man(a1-3)]Man(b1-4)GlcNAc(b1-4)GlcNAc
# Procedure, shortened: as §1
# [40] = molecular target: Gal(b1-4)GlcNAc(b1-2)[Gal(b1-4)GlcNAc(b1-6)]Man(a1-6)[GlcNAc(b1-4)][Gal(b1-4)GlcNAc(b1-2)[Gal(b1-4)GlcNAc(b1-4)]Man(a1-3)]Man(b1-4)GlcNAc(b1-4)[Fuc(a1-6)]GlcNAc
# Procedure, shortened: as §1
# [41] = molecular target: Gal(b1-4)GlcNAc(b1-3)Gal(b1-3)GalNAc
# Procedure, shortened: as §1
# [42] = molecular target: Gal(b1-4)GlcNAc(b1-3)Gal(b1-3)GlcNAc
# Procedure, shortened: as §1
# [43] = molecular target: Gal(b1-4)GlcNAc(b1-3)Gal(b1-4)Glc
# Procedure, shortened: as §1
# [44] = molecular target: Gal(b1-4)GlcNAc(b1-3)Gal(b1-4)GlcNAc
# Procedure, shortened: as §1
# [45] = molecular target: Gal(b1-4)GlcNAc(b1-3)Gal(b1-4)GlcNAc(b1-2)Man(a1-3)[Gal(b1-4)GlcNAc(b1-3)Gal(b1-4)GlcNAc(b1-2)Man(a1-6)]Man(b1-4)GlcNAc(b1-4)GlcNAc
# Procedure, shortened: as §1
binder,measurement,setting,value
LFA (Limax flavus) (protein) MSVLFLAASFLLLASFELVAAQGCPRQDPGDWIVIQRRLNADVNFYRGWADYKHGFGDLRCNFWLGNEKIHQLTSHGRYKLRVEFTFNNKSYFAEYSTFKILGEADKYKLQVGGYSGNAGDALTFHNGMAFSTNDRDNDADSIDCAKVYHGAWWYKTCHESNLNGKWGSKKYGEGLNWKAKTTFTATATSSLLKIKALK,glycan array binding signal (z-score),[1],0.284
same,glycan array binding signal (z-score),[2],-0.21
same,glycan array binding signal (z-score),[3],-0.245
same,glycan array binding signal (z-score),[4],-0.277
same,glycan array binding signal (z-score),[5],0.034
same,glycan array binding signal (z-score),[6],0.669
same,glycan array binding signal (z-score),[7],0.136
same,glycan array binding signal (z-score),[8],-0.269
same,glycan array binding signal (z-score),[9],0.084
same,glycan array binding signal (z-score),[10],0.136
same,glycan array binding signal (z-score),[11],0.048
same,glycan array binding signal (z-score),[12],-0.167
same,glycan array binding signal (z-score),[13],0.143
same,glycan array binding signal (z-score),[14],0.372
same,glycan array binding signal (z-score),[15],-0.29
same,glycan array binding signal (z-score),[16],-0.289
same,glycan array binding signal (z-score),[17],-0.29
same,glycan array binding signal (z-score),[18],-0.169
same,glycan array binding signal (z-score),[19],-0.332
same,glycan array binding signal (z-score),[20],-0.293
same,glycan array binding signal (z-score),[21],-0.198
same,glycan array binding signal (z-score),[22],-0.292
same,glycan array binding signal (z-score),[23],-0.307
same,glycan array binding signal (z-score),[24],-0.047
same,glycan array binding signal (z-score),[25],-0.389
same,glycan array binding signal (z-score),[26],-0.175
same,glycan array binding signal (z-score),[27],-0.381
same,glycan array binding signal (z-score),[28],0.181
same,glycan array binding signal (z-score),[29],-0.193
same,glycan array binding signal (z-score),[30],-0.28
same,glycan array binding signal (z-score),[31],-0.282
same,glycan array binding signal (z-score),[32],0.098
same,glycan array binding signal (z-score),[33],-0.263
same,glycan array binding signal (z-score),[34],-0.175
same,glycan array binding signal (z-score),[35],-0.021
same,glycan array binding signal (z-score),[36],-0.008
same,glycan array binding signal (z-score),[37],-0.016
same,glycan array binding signal (z-score),[38],-0.115
same,glycan array binding signal (z-score),[39],-0.016
same,glycan array binding signal (z-score),[40],-0.186
same,glycan array binding signal (z-score),[41],-0.152
same,glycan array binding signal (z-score),[42],-0.155
same,glycan array binding signal (z-score),[43],-0.18
same,glycan array binding signal (z-score),[44],-0.235
same,glycan array binding signal (z-score),[45],2.97
